# PubChem BioAssay AID463173 (ICCB-Longwood Screening Facility, Harvard Medical School, 2010)
# Screen size: about 52,000 compounds; about 4,300 (8.3%) were called active. Cut-off read from the data, not from the text of the source: active = survival mostly below about 52% (no sharp cut-off); inactive = mostly above about 56%. The list shows a part of the results.
# Tested on: DeltatarO mutant
# Assay: growth inhibition of S. aureus wild type versus tarO mutant, primary screen, teichoic acid synthesis inhibitors, RN4220, OD600 (AID 463173)
# Settings: OD600, 18 h, stronger effect = lower value, screened at 18.75 µg/mL (by protocol)
row,Structure (SMILES),survival
1,Cc1ccc(Oc2nc3ccccn3c(=O)c2/C=C(\C#N)c2nc3ccccc3s2)c(C)c1,inactive: 41%
2,CCN(CC)c1ccc(NS(=O)(=O)c2ccc(-c3coc(C)n3)cc2)c(C)c1,inactive: 90%
3,Cc1nn(C)c2c1c(C(F)(F)F)cc(=O)n2CC(=O)N1CCN(c2ccccc2F)CC1,inactive: 90%
4,Cc1ccc(C2C(C#N)=C(N)N(c3cccnc3)C3=C2C(=O)CCC3)s1 (stereo not drawn),inactive: 83%
5,CC(=O)N1CCc2c(sc3c2c(=O)n(-c2cccc(Cl)c2)c(=O)n3Cc2ccc(F)cc2Cl)C1,inactive: 85%
6,O=C(NCc1ccc2c(c1)CCN2C(=O)c1ccc(Cl)cc1)c1ccco1,inactive: 80%
7,CCOC(=O)c1c(NC(=O)/C=C/c2ccc(OCC)cc2)sc2c1CCCC2,active: 36%
8,O=C(Cn1c(=O)n(-c2ccccc2)c(=O)c2c3c(sc21)CCCC3)Nc1ccccc1,inactive: 118%
9,Cc1cc(-c2ccc(C)c(S(=O)(=O)N3c4ccccc4CC3C)c2)on1 (stereo not drawn),inactive: 92%
10,CCc1c(C)nc2nncn2c1NCc1ccc(OC)cc1,inactive: 85%
11,Cc1[nH]c2ccc(CNS(=O)(=O)c3ccc(S(=O)(=O)N4CCOCC4)cc3)cc2c1C,inactive: 91%
12,Cc1cc2c(cc3c(=O)n(CC(=O)NCc4ccccc4Br)ncn32)s1,inactive: 72%
13,Cc1ccc(Cc2c(C)nc3c(-c4ccccc4)c(C)[nH]n3c2=O)cc1,active: 0%
14,Cc1ccc(-n2nc(C)c3c(C(=O)O)cc(C)nc32)cc1,inactive: 56%
15,Oc1ccccc1C1NN=C(c2ccccc2)S1 (stereo not drawn),inactive: 77%
16,S=c1[nH]c2ccccc2n1C1CCCCC1,inactive: 94%
17,CCOC(=O)CSc1nnc2n(-c3ccccc3)c(=O)c3c4c(sc3n12)COC(C(C)C)C4 (stereo not drawn),inactive: 74%
18,CS(=O)(=O)c1ccc(-c2nnn(CC(=O)NC3CCCC3)n2)cc1,inactive: 74%
19,CCCCN(CC)CCNC(=O)C1CCN(c2nnc(C)c3c(C)n(-c4ccc(C)cc4)nc23)CC1,inactive: 67%
20,Cc1noc2ncnc(N3CCN(c4ccccc4F)CC3)c12,inactive: 84%
21,Cc1cccc(CSc2nc3cccnc3n2Cc2ccc(C(=O)NCc3ccco3)cc2)c1,inactive: 73%
22,COc1ccc(CN(Cc2ccco2)c2cnc(S(C)(=O)=O)nc2C(=O)Nc2ccc(C)c(C)c2)cc1,active: 44%

row,Structure (SMILES),survival
1,COC(=O)c1ccc(C(=O)Nc2ccc(-c3nc4cc(NC(=O)c5ccc(C(=O)OC)cc5)ccc4o3)cc2)cc1,inactive: 60%
2,CCSc1ncc(Cl)c(C(=O)Nc2ccc(S(=O)(=O)Nc3nccc(C)n3)cc2)n1,inactive: 95%
3,Cc1ccc(Cl)cc1NC(=O)Cn1cc2c(n1)CCCCC2,inactive: 68%
4,Cc1cccc(C)c1OCCn1c(C2CC(=O)N(Cc3ccc(F)cc3)C2)nc2ccccc21 (stereo not drawn),active: 4%
5,CC(CNC(=O)c1ccc2c(c1)nc1n2CCOC1)c1ccccc1 (stereo not drawn),inactive: 72%
6,CC(C)NC(=O)CSc1nc2ccccc2c(=O)n1Cc1ccc(C(=O)NC(C)C)cc1,inactive: 105%
7,O=C(CCS(=O)(=O)c1cccc2nonc12)Nc1cccc(F)c1,inactive: 67%
8,O=S1(=O)C=C(Sc2nnnn2-c2ccccc2)c2ccccc21,active: 4%
9,CN(C)C(=O)COc1ccc(S(=O)(=O)c2ccc(OCC(=O)N(C)C)cc2)cc1,inactive: 109%
10,O=C(CSc1nc(=O)[nH]c2c1CCC2)NCc1ccc(Cl)cc1,inactive: 67%
11,COc1ccc(N2CCN(C(=O)c3cc(NS(=O)(=O)c4ccc(F)cc4)ccn3)CC2)cc1,inactive: 66%
12,CCOc1ccc(CCNC(=O)CCN2N=C(c3ccc(OC)cc3)CCC2=O)cc1OCC,inactive: 81%
13,CCCSCCCNC(=O)c1cc2n(n1)CCCN(Cc1ccc(C)cc1)C2=O,inactive: 89%
14,Cc1ccc(C)c(N2CCN(C(=O)CCn3c(=O)[nH]c4ccccc4c3=O)CC2)c1,inactive: 97%
15,Cc1ccc(C)c(NC(=O)CSc2ncc3c(n2)-c2cc(Cl)ccc2N(Cc2ccccc2F)S3(=O)=O)c1,inactive: 79%
16,CC1(C)CC(=O)c2cc(-c3nc(-c4ccc(Cl)cc4)cs3)c(=O)n(-c3ccc(F)cc3)c2C1,inactive: 62%
17,Cc1cc(Cl)ccc1NC(=O)CCn1nc(C)c2c(C)n(-c3ccccc3)nc2c1=O,inactive: 72%
18,Cc1nc(SCC(=O)OCN2C(=O)c3ccccc3C2=O)n[nH]1,inactive: 80%
19,Cc1cccc(OCCSc2nc3ccc(NC(=O)COc4ccccc4F)cc3s2)c1,inactive: 58%
20,COc1ccc(-c2oc3ncn4nc(-c5ccccc5Cl)nc4c3c2-c2ccc(OC)cc2)cc1,inactive: 73%
21,O=C(CCC1N=C2c3ccccc3N=C(SCc3ccccc3Cl)N2C1=O)N1CCN(c2ccccc2)CC1 (stereo not drawn),active: 49%
22,COC(=O)CC1Oc2ccc(C)cc2-n2cc(-c3ccc(F)cc3)nc21 (stereo not drawn),active: 56%

row,Structure (SMILES),survival
1,Cc1ccc2cc3c(N)[nH]nc3nc2c1,inactive: 65%
2,Cc1cc(Cl)ccc1OCC(=O)N1CCC(c2nc3ccccc3o2)CC1,inactive: 54%
3,CCn1c(=O)/c(=C2/Sc3ccc(Cl)cc3N2C)s/c1=C1/C(=O)N(C)N=C1C,inactive: 94%
4,Cc1ccc(CN(Cc2cccn2-c2nnc(N3CCCC3=O)s2)C(=O)Nc2ccc(F)cc2)cc1,inactive: 111%
5,O=C(COc1ccc(F)cc1)Nc1ccc(C(=O)OCc2cc(=O)n3nc(C4CC4)sc3n2)cc1,inactive: 86%
6,CCOc1ccc(NC(=O)N2CCC(c3ccc(C)cc3)C2)cc1 (stereo not drawn),inactive: 66%
7,Cc1ccc(-n2nc(C(=O)Nc3ccc(Br)cc3C)c(=O)n(C)c2=O)cc1,inactive: 99%
8,CCOc1ccc(NC(=O)c2sc3nc4c(cc3c2N)CN(Cc2ccccc2)CC4)cc1,inactive: 73%
9,COC(=O)c1ccc(NC(=O)C(=O)NCCc2csc(-c3ccc(C(F)(F)F)cc3)n2)cc1,inactive: 75%
10,COc1ccccc1CNC(=O)CSCc1nc(-c2ccc(OC)c(OC)c2)oc1C,inactive: 71%
11,O=C1CSC(=S)N1C1CCS(=O)(=O)C1 (stereo not drawn),inactive: 97%
12,COc1ccc(NC(=O)CN2CCN(CC(=O)Nc3ccccc3F)CC2)cc1OC,inactive: 84%
13,O=C(N=Nc1c(O)[nH]c2ccccc12)C1CC1c1ccccc1 (stereo not drawn),active: 35%
14,O=S(=O)(c1ccc(F)cc1)N(Cc1nc(-c2ccccc2)no1)C1CCCCC1,active: 45%
15,CCOC(=O)c1ccc(NC(=O)COc2cccc3c(=O)n(C)ccc23)cc1,inactive: 81%
16,CCOc1ccc(N2C(=O)CC(N3CCCCC3CC)C2=O)cc1 (stereo not drawn),active: 53%
17,CCc1nn(CC(=O)N2CCN(c3cccc(Cl)c3)CC2)c(=O)c2cc3sccc3n12,inactive: 129%
18,Cc1ccccc1Cn1nc(C)c(NC(=O)c2cc(CC(C)C)on2)c1C,inactive: 56%
19,COc1cc(OC)c(NC(=O)Cn2c(SCc3ccccc3F)nc3cccnc32)cc1Cl,inactive: 69%
20,O=C1CC(c2cccc(Cl)c2Cl)c2cc3c(cc2N1)OCCO3 (stereo not drawn),inactive: 64%
21,CC(=O)c1ccc(N2CCN(c3nc4ccccc4c4nc(-c5cccc(C)c5)nn34)CC2)cc1,active: 41%
22,CCOc1ccc(NC(=O)Cn2nc(SC)c(S(=O)(=O)c3ccccc3)c2N)cc1,inactive: 70%

row,Structure (SMILES),survival
1,COc1ccc(OC)c(NC(=O)CCn2cccn2)c1,active: 47%
2,Cc1ccc(Cn2ccnc2SCC(=O)Nc2ccccc2C(F)(F)F)cc1,inactive: 78%
3,CCC(=O)OC1CSc2nc3ccccc3n2C1 (stereo not drawn),inactive: 76%
4,CCOC(=O)c1ccccc1NC(=O)NCc1cccn1Cc1ccc(F)cc1,inactive: 82%
5,COc1ccc(NC(=O)CSc2nc(-c3ccccc3)[nH]c2-c2ccccc2)cc1OC,inactive: 49%
6,CN(C(=O)C1CCN(c2ncnc3c2nc2n3CCCCC2)CC1)c1ccccc1F,inactive: 76%
7,CC(=O)c1ccc(N2CCN(C(=O)c3cc4c(s3)-c3ccccc3OC4)CC2)cc1,inactive: 65%
8,CC(C)C(NS(=O)(=O)c1ccc2c(c1)oc(=O)n2C)C(=O)NCc1ccccc1 (stereo not drawn),inactive: 92%
9,Cc1oc(-c2ccc(C(=O)NCc3ccccc3F)cc2)nc1COc1ccccc1,inactive: 77%
10,Cc1ccc(NC(=O)C2CCN(S(=O)(=O)c3ccc4c(c3)CCCN4C(=O)C3CCC3)CC2)cc1,inactive: 104%
11,O=C(CCS(=O)(=O)c1nc(-c2cccs2)cc(C(F)(F)F)n1)Nc1ccc(F)c(Cl)c1,inactive: 67%
12,CSc1nc(N)c(C#N)c(C(C)C)c1C#N,inactive: 75%
13,O=C(NCCCN1CCCCC1)c1[nH]c2ccccc2c1Sc1ccc(Cl)cc1,active: 7%
14,NC(=O)C1CCN(C(=O)CSc2nc(O)cc(=O)[nH]2)CC1,inactive: 77%
15,Cc1c(Cl)cccc1-n1ncc(C(=O)N2CCC(C)CC2)c1C1CCN(C(=O)OC(C)(C)C)CC1,inactive: 60%
16,Cc1cc(C)nc(NS(=O)(=O)c2ccc(NC(=O)c3nc(SC(C)C)ncc3Cl)cc2)n1,inactive: 49%
17,CCOc1ccc(CCNC(=O)c2ccc3c(c2)nc2n3CCOC2)cc1OCC,inactive: 79%
18,O=C(CSc1nc2c([nH]c3ccccc32)c(=O)n1-c1ccc(F)cc1)NCc1ccc(F)cc1,inactive: 80%
19,O=C(Nc1cccc(C(=O)OCc2cc(=O)n3c4c(sc3n2)CCCC4)c1)c1cccc(Cl)c1,inactive: 69%
20,COc1cccc(NC(=O)Cn2nnc(C(=O)NCCc3ccccc3)c2N)c1,inactive: 144%
21,Cn1cnc2c(=O)oc3ccc(S(=O)(=O)N4CCN(c5ccccc5F)CC4)cc3c21,inactive: 92%
22,Cc1nc(-c2ccc(S(=O)(=O)N(Cc3ccccc3)C(C)C)cc2)co1,inactive: 70%
